Experimental data from article PMC4336329 (PLoS ONE, 2015).
Hit rate of the full screen: of about 310,000 compounds, about 2,200 (0.71%) showed an effect of 50% or more. The effect is printed as a negative number. Some of the results follow.

Biological target: human ether-à-go-go-related gene (hERG) potassium channel (human, UniProt Q12809)
Assay: primary screen, population patch clamp on CHO cells stably expressing hERG

Chain of human ether-à-go-go-related gene (hERG) potassium channel (Q12809 whole entry, looked up): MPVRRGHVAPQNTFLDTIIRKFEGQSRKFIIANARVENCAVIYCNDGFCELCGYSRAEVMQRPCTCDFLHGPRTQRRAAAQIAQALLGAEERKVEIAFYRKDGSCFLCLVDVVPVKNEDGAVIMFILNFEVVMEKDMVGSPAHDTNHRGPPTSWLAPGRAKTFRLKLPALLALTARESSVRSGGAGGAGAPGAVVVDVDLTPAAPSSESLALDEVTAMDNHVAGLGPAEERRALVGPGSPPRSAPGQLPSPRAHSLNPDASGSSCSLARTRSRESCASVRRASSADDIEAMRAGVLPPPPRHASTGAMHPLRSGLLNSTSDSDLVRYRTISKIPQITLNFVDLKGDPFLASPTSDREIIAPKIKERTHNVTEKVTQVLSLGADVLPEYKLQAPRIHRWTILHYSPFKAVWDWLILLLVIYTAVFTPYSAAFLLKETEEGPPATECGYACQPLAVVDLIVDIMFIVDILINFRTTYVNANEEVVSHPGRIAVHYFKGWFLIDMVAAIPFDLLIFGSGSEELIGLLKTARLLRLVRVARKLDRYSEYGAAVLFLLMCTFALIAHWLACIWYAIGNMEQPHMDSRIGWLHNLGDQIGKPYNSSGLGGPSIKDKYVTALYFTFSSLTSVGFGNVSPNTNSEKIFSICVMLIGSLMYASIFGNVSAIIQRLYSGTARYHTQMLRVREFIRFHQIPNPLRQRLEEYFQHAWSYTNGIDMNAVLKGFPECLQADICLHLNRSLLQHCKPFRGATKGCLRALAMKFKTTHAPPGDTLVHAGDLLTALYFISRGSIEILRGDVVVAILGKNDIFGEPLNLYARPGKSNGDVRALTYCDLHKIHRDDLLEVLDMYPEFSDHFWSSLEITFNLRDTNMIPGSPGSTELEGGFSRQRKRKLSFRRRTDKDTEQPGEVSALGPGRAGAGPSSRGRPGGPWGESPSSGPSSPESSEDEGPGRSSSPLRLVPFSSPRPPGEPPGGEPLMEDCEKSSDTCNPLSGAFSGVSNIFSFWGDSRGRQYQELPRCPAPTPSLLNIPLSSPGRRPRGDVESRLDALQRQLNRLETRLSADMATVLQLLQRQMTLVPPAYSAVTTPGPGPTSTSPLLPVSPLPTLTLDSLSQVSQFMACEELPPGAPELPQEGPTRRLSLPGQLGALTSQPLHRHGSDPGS

Row | SMILES | hERG current change (%, negative = inhibition) at 1uM [%]
1 | COc1ccc(NC(=O)CSc2nccn2Cc2ccccc2)c(OC)c1 | 6.24
2 | CC1CCCC(C)N1S(=O)(=O)c1ccc(S(=O)(=O)NCCc2ccncc2)cc1 (stereo not drawn) | -3.98
3 | CCOC(=O)C1=C(C)N(C)C(C)=C(C(=O)OCC)C1c1ccccc1 | 10.5
4 | CCC(CC)c1nc(C#N)c(NC(C)c2ccccc2)o1 (stereo not drawn) | 13.5
5 | COCC(C)Nc1nc(C)c(C(C)=O)s1 (stereo not drawn) | 3.75
6 | O=Cc1ccc(-c2ccc(F)cc2)o1 | 3.76
7 | Cc1cccc(-n2c(C)nc3cc(C(=O)NCC4CCCO4)ccc32)c1 (stereo not drawn) | 5.69
8 | O=C(Nc1ccc(Cl)cc1)Nc1nnc(SCc2ccc(Cl)cc2)s1 | 6.21
9 | Cc1ccn(CC(=O)N2CCCC(N3CCN(Cc4ccc5c(c4)OCO5)CC3)C2)n1 (stereo not drawn) | 11.3
10 | Cc1ccc(SCCC(=O)OC(C(=O)NC(N)=O)C(C)C)cc1 (stereo not drawn) | 7.5
11 | O=C(O)c1ccccc1C(=O)N1CCN(c2ccccc2)CC1 | 10.7
12 | NC(=NC(=O)c1ccccc1)N1CCN(C(c2ccccc2)c2ccccc2)CC1 | 2.02
13 | Cc1cc(C)n(C(=O)CN2C(=O)CCC2=O)n1 | 18.5
14 | CC(=O)Oc1ccc(N(C(C)=O)S(=O)(=O)c2cccs2)cc1 | -0.517
15 | COc1cc(C(=O)N2CCN(C(=O)C3COc4ccccc4O3)CC2)cc(OC)c1OC (stereo not drawn) | -4.76
16 | CCOc1cc(C(=O)Nc2ccc(N3CCN(S(C)(=O)=O)CC3)cc2)cc(OCC)c1OCC | 8.59
17 | COc1cccc(=O)c2c(C)oc(C)c12 | 5.14
18 | O=C1c2ccccc2C(=O)N1CCCc1cn(C[C@H]2CC[C@@H]([C@@H]3CC[C@H](Cn4cc(CCCN5C(=O)c6ccccc6C5=O)nn4)O3)O2)nn1 | 7.88
19 | O=C(Nc1cc(=O)[nH]c2nc(-c3ccccc3)nn12)c1ccccc1Cl | 18.3
20 | CC1=C(C(N)=O)C(c2ccc(C)o2)C(C(N)=O)=C(C)N1 | 18
21 | CCOc1ccc2[nH]c(=O)c(CN(Cc3ccc(C)cc3)C(=O)N3CCCC3)cc2c1 | 14.7
22 | COc1cc(C(=O)Nc2ccc(S(=O)(=O)Nc3onc(C)c3C)cc2)cc(OC)c1OC | 8.98
23 | COc1cccc(NC(=O)CN(C)C(C)C(=O)Nc2cc([N+](=O)[O-])ccc2Cl)c1 (stereo not drawn) | -2
24 | Cc1cccc(N2CCN(C(=O)C3CCN(S(=O)(=O)N4CCOCC4)CC3)CC2)c1C | -3.43
